According to publication PMC4656213, “Structural basis for inhibition of the Tob-CNOT7 interaction by a fragment screening approach” (Protein & Cell, 2015):
Where a chain is given by its changes, count along the chain named. In names and notes the source's numbering stands. No constants are given. Whether binding was seen depends on the method and setting. For some of these results: In cells and extracts the contact can be indirect. Some entries that bind do so weakly or less than the wild type.

By UniProt entry, the sequences of proteins in these tests, tags left out. Where a name states a change or a piece, a line headed by the entry shows the natural chain unless it says otherwise. Chains listed by the source or under a name are the forms on record and can include a tag or linker. Residues count along the entry.
UniProt Q9UIV1: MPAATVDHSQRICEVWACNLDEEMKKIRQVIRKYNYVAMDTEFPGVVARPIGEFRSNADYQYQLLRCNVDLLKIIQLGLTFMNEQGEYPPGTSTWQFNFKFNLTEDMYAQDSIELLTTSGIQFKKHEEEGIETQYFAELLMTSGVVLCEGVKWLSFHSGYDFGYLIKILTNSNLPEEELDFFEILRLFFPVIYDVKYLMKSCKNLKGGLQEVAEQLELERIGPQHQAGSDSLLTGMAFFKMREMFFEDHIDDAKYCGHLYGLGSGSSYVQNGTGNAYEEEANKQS
recombinant GST tagged CNOT7: residues 11-262 of Q9UIV1

T1: Tob immobilised on the CM5 sensor chip (SPR screening) (human) (UniProt P50616)
T1 sequence: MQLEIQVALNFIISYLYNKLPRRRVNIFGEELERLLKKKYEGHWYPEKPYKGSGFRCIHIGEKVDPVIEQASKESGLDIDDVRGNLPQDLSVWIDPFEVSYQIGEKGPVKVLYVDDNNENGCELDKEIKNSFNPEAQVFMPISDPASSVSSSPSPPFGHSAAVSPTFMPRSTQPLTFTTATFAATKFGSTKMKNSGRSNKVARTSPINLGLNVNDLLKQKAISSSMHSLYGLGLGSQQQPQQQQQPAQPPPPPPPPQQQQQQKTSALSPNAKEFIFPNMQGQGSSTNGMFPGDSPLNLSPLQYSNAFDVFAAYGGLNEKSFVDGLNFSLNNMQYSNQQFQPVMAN

B1: human Tob residues 1-138 (TobN138), wild type (domain or fragment, UniProt P50616 1-138, looked up)
chain: MQLEIQVALNFIISYLYNKLPRRRVNIFGEELERLLKKKYEGHWYPEKPYKGSGFRCIHIGEKVDPVIEQASKESGLDIDDVRGNLPQDLSVWIDPFEVSYQIGEKGPVKVLYVDDNNENGCELDKEIKNSFNPEAQV
notes: Tob (Tob1), human, residues 1-138, containing the Box A and Box B motifs; Cloned into pGEX-6P-1 via BamHI and XhoI; A second preparation (His6-SUMO, pET-28b, Rosetta2) was made for the SPR screening; also called Tob1; TobN138 WT
B2: TobN138 K63A mutant (domain or fragment, human, UniProt P50616 1-138, looked up)
chain: B1 chain with K63A
notes: Tob (Tob1), human, residues 1-138, with the point mutation K63A; Made by PCR mutagenesis with the human TobN138 expression plasmid as template; source: E. coli BL21 (DE3), purified following the protocol for wild-type Tob
B3: Tob wild type (expression vector in Cos7 cells) (protein, UniProt P50616 1-345)
chain: T1 sequence
B4: Tob K63A mutant (expression vector in Cos7 cells) (protein, UniProt P50616 1-345)
chain: T1 sequence with K63A
B5: TobN138 D95A mutant (domain or fragment, UniProt P50616 1-138)
chain: B1 chain with D95A
B6: Tob W93A mutant (expression vector in Cos7 cells) (protein, UniProt P50616 1-345)
chain: T1 sequence with W93A

Columns and labels:
[1] = molecular target: T1, Tob immobilised on the CM5 sensor chip (SPR screening) (human); assay: SPR; Biacore, Tob on the CM5 sensor chip; CNOT7 injected alone or mixed with fragment compounds (competitive screening); buffer with 5% DMSO; both purified
[2] = molecular target: recombinant GST tagged CNOT7 (UniProt Q9UIV1); assay: pull-down; GST pull-down with recombinant GST tagged CNOT7 and TobN138 (wild type, K63A, D95A); GST as negative control; both purified
[3] = molecular target: Flag-CNOT7 (UniProt Q9UIV1); assay: co-IP; Cos7 cells transfected with Tob expression vector (WT, K63A or W93A) with control or Flag-CNOT7 vector; lysates immunoprecipitated with anti-Flag antibody, immunoblot

Molecule	binding [2]	binding [3]	other results
CNOT7 (recombinant, used in SPR, ITC and the deadenylase assay) (from UniProt Q9UIV1 11-262) (enzyme)			binding [1]: binds
B1	binds		
B2	binds		
B3		binds	
B4		binds	
B5	no binding		
B6		no binding	
